These results are taken from PubChem BioAssay AID1159614 (National Center for Advancing Translational Sciences (NCATS), 2016).

The campaign covered roughly 45,000 compounds. About 65 (0.1%) were called active. The call rests on the fitted dose curve; in most records, active means well fitted activation curve with a large enough effect; inconclusive means small, poorly fitted or top-dose-only effect; inactive means no such curve, though single readings can be large or run the other way. The list shows a part of the results.

The target in this experiment is Galactocerebrosidase (Homo sapiens) (UniProt P54803). In words: A Novel Cell-Based Assay to Identify Small Molecules for B -Galactocerebrosidase. Further: 0% is about no effect; nearly all actives have a fitted effect of over 65% in size. Particulars: 145M-Twi-hGALC-G270D cells (Twitcher mouse brain line with human GALC G270D), HMU-beta-Gal fluorescence, 48 h; series mostly up to 57.5 µM; activation: at the top concentration. Put shortly: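 Live 145M-Twi cells (Twitcher mouse brain-derived, GALC-null) stably expressing human GALC-G270D, with a wild-type GALC line, were compound-treated. Residual GALC activity was then read as fluorescence from 0.1 mM final HMU-β-gal at pH 5.2; higher signal means activation.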
UniProt P54803, sequence (P54803 whole entry, looked up): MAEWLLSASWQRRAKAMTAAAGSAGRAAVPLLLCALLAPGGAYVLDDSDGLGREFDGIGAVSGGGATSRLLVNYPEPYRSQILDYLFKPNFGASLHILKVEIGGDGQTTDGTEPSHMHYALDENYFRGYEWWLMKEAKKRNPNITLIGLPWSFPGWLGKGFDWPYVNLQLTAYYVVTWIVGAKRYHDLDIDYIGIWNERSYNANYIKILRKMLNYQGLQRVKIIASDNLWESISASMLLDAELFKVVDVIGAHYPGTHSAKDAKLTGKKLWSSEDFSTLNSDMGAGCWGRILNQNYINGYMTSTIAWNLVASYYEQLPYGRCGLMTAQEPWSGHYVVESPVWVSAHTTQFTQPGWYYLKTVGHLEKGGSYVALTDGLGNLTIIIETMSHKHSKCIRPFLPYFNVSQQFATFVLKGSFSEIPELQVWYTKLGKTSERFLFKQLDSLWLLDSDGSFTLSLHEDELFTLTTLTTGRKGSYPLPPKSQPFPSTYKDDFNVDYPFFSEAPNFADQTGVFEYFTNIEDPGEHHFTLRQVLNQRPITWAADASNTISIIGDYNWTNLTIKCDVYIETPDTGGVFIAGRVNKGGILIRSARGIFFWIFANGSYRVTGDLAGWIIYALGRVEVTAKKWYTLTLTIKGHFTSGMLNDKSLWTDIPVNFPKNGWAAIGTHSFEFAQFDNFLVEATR
Turning to `Cc1ccc(-c2nc(C(=O)NCc3ccccc3Cl)c3n2CCCCC3)cc1`, the “activation” value was inactive: -5.69%.
Take `Cc1ccc(NC(=O)N2CCC(CN3CCCC3)CC2)c(C)c1`: the “activation” value is inactive: -4.56%.
Take `CCc1cccc(NC(=O)c2ccc(NC(=O)N3CCSc4ncccc43)cc2)c1`: the “activation” value was inactive: -9.94%.
Regarding `O=C(CCCc1ccccc1)NC1CC(=O)N(c2ccc(F)cc2)C1` (stereo unspecified), the “activation” value is inactive: -4.47%.
For the molecule `CC(=O)c1cccc(NS(=O)(=O)c2cc3c(cc2C)N(C(C)=O)CCO3)c1`, the “activation” value is inactive: -11.2%.
The value for `COC(=O)c1cc(C)nc2c1c(=O)nc(SCc1ccccc1C)n2C1CC1` was inactive: -26%; that for `COC(=O)C1CCN(S(=O)(=O)c2ccc(N3CCCCS3(=O)=O)cc2)CC1` was inactive: -17%.
The value for `O=C1[C@H]2CCCC[C@H]2C(=O)N1CCCCN1CCN(c2nsc3ccccc23)CC1` was inactive: -22%; that for `Cc1cccc(NC(=O)C(Cc2ccccc2)NS(=O)(=O)c2ccc3c(c2)c(=O)n(C)c(=O)n3C)c1` (stereo unspecified) was inactive: -10.7%; that for `CCc1nn(CCCC(=O)N2CCN(c3cccc(OC)c3)CC2)c(=O)c2cc3occc3n12` was inactive: 3.16%.
Consider `Cc1c(-c2nc(-c3ccc4c(c3)OCO4)no2)nnn1-c1ccc(C(C)C)cc1`, for which the “activation” value is inactive: -8.71%.
The figure for `Cc1ccc(C(=O)NCC(c2ccc3c(c2)OCO3)N2CCOCC2)cc1` (stereo unspecified) is inactive: -4.88%; for `CCC(=O)Oc1ccc(C2Nc3ccccc3-c3nnc(SC)nc3O2)cc1` (stereo unspecified) it is inactive: -9.88%; for `Cc1ccc(NC(=O)N2CCN(c3cc(-c4noc(C)n4)ccc3C)CC2)c(F)c1` it is inactive: 4.82%.
The figure for `Cc1ccc2nc(-c3cc(NC(=O)COc4ccc(C)c(C)c4)ccc3Cl)oc2c1` is inactive: -22.5%; for `CN1N=C(C(N)=O)CCC1=O` it is inactive: -18%; for `CCOC(=O)COc1ccc(F)cc1C(=O)c1ccn2nc(-c3ccc(Cl)cc3)cc2n1` it is inactive: -8.86%.
On to `CCOC(=O)c1noc2ncnc(Nc3cccc(OC)c3)c12`, for which the “activation” value is inactive: -12.5%.
The value for `CCCn1c(=O)c2sccc2n2c(CCCC(=O)NCc3ccccc3)nnc12` was inactive: 0.974%; that for `O=C(COc1ccccc1Cl)Nc1ccc2nc(SCC(=O)N3CCCC3)sc2c1` was inactive: -7.48%.
On to `O=C(CCn1nc(-c2ccc(Cl)cc2)ccc1=O)NCCc1ccccc1`, for which the “activation” value is inactive: -4.42%.
In the case of `Cc1ccc(S(=O)Cc2nc(-c3ccc(C(=O)NCc4cccc(C)c4)cc3)oc2C)cc1` (stereo unspecified), the “activation” value was inactive: -21%.
As for `CC(=O)Nc1c(C)nn(-c2ccccc2)c1N1CCC(C(=O)NCc2ccccc2Cl)CC1`, the “activation” value was inactive: -9.22%.
On to `CCOC(=O)c1c(NC(=O)CSc2cn(CCNC(=O)c3c(F)cccc3F)c3ccccc23)sc2c1CCC2`, for which the “activation” value is inactive: -8.84%.
The value for `COc1ccc(CCN2C(=O)c3[nH]nc(-c4ccccc4O)c3C2c2ccc(OC)c(OC)c2)cc1` (stereo unspecified) was inactive: -21.8%; that for `Clc1cccc(Cl)c1NC1=NCCN1` was inactive: -7.54%.
Regarding `COc1ccc(-c2cc(-c3ccccc3)nc(SCC(=O)Nc3ccccc3F)c2C#N)cc1`, the “activation” value was inactive: -17.4%.
For the molecule `CCOc1ccc(-n2c(SCC(N)=O)nc3c(oc4ccccc43)c2=O)cc1`, the “activation” value is inactive: -22.9%.
`COc1cccc(NC(=O)CSc2nc(-c3ccccc3Cl)nc3c2Cc2c(CO)cnc(C)c2O3)c1`: the “activation” value was inactive: 6.91%.
As for `CCOC(=O)C1=C(CS(=O)(=O)c2ccc(OC)c(Cl)c2)NC(=O)NC1c1cccc(OC)c1` (stereo unspecified), the “activation” value was inactive: -8.55%.
Turning to `Cc1cc(=O)n(Cc2ccc(Cl)cc2)c2c1c(C)nn2-c1ccccc1`, the “activation” value is inactive: -7.81%.
`COc1ccc(OC)c(S(=O)(=O)NCCS(=O)(=O)N2CCN(c3ccccc3)CC2)c1`: the “activation” value is inactive: -8.12%.
On to `COc1cccc(CNC(=O)c2cccc(-n3c(C)nc4cccnc43)c2)c1OC`, for which the “activation” value was inactive: -10.8%.
As to `O=C(Cn1c(=O)n(-c2ccccc2)c(=O)c2c3c(sc21)CCCC3)Nc1ccc(F)cc1F`, the “activation” value was inactive: -1.8%.
Consider `N#Cc1nc(-c2ccc(COc3ccc(Cl)cc3)o2)oc1N1CCC(C(N)=O)CC1`, for which the “activation” value is inactive: -19.2%.
For the molecule `COc1ccc(OC)c(C2=NS(=O)(=O)N(C)C(C(=O)Nc3ccc(F)cc3F)=C2)c1`, the “activation” value is inactive: 0.171%.
In the case of `O=C(CSc1cn(CC(=O)N2CCCCC2)c2ccccc12)Nc1ccccc1`, the “activation” value is inactive: -14.2%.
The value for `Cc1ccc(C)c(NC(=O)C2CCCN(c3ncnc4onc(C)c34)C2)c1` (stereo unspecified) was inactive: -9.43%; that for `Cc1nc(-c2ccccc2)sc1-c1ccc(SCC(=O)NCc2ccccc2Cl)nn1` was inactive: 0.113%.
Take `O=C(NCc1noc2ccccc12)N1CCN(c2ccccc2)CC1`: the “activation” value is inactive: -9.62%.
Take `CCc1ccccc1NC(=O)N1CCCn2nc(C)cc21`: the “activation” value was inactive: -11.4%.
As to `O=C(NCC(c1ccco1)S(=O)(=O)c1cccs1)c1ccc(F)c(F)c1` (stereo unspecified), the “activation” value is inactive: -10.6%.
With `CCCOc1ccc(C2c3c(-c4c(C)cc(C)cc4O)n[nH]c3C(=O)N2CCO)cc1` (stereo unspecified), the “activation” value is inactive: -7.87%.
The value for `O=C(Cn1c(=O)n(Cc2ccccc2)c(=O)c2sc3ccccc3c21)Nc1ccccc1` was inactive: -5.5%.
The value for `CCOc1ccc(-c2cc3nc(C4CCN(C(=O)OC(C)(C)C)CC4)c(C(=O)Nc4cc(OC)ccc4OC)cn3n2)cc1` was inactive: -16.3%; that for `Cc1ccc(Cl)cc1NC(=O)c1sc(-n2nc(C)c(Cc3ccc4c(c3)OCO4)c2C)nc1C` was inactive: -9.85%; that for `CCN1CCOC(=O)C1CC(=O)Nc1ccc(Br)cc1` (stereo unspecified) was inactive: -14.4%.
As to `Cc1nn(C)c2c1c(-c1ccccc1)cc(=O)n2CC(=O)NC(C)c1ccccc1` (stereo unspecified), the “activation” value was inactive: -19.7%.
Regarding `Cc1ccc(Cl)cc1NC(=O)Nc1cccc(OCc2cc(=O)n3ccccc3n2)c1`, the “activation” value is inactive: 1.73%.
On to `COc1ccc(-n2c(-c3ccco3)nc3c(cnn3-c3ccccc3Cl)c2=O)cc1`, for which the “activation” value is inactive: 20.4%.
Regarding `CCCCCn1c(CN2CCN(c3ccc(OC)cc3)CC2)nc2c1c(=O)[nH]c(=O)n2C`, the “activation” value is inactive: -12.7%.
As to `CC(C)N(CCCNC(=O)Cn1ncc2c([nH]c3ccccc32)c1=O)Cc1ccccc1`, the “activation” value was inactive: -3.81%.
For the molecule `COCCNC(=O)c1ccc2nc(Cc3ccccc3)oc2c1`, the “activation” value is inactive: -24.6%.
For the molecule `Cc1cc(C)c2c(=O)cc(C(=O)Nc3sc4c(c3C(=O)NCC3CCCO3)CCCC4)oc2c1` (stereo unspecified), the “activation” value was inactive: -2.31%.
Take `Cc1ccc(Nc2nnc(-c3ccc(C)c(S(=O)(=O)N4CCOCC4)c3)c3ccccc23)cc1`: the “activation” value is inactive: -20.6%.
As to `COc1ccc(C)cc1NC(=O)CC1NCCNC1=O` (stereo unspecified), the “activation” value is inactive: -4.27%.
On to `Cc1cc(=O)n(Cc2ccccc2)c2c1c(C)nn2C`, for which the “activation” value was inactive: -17.9%.
`CC(=O)c1ccc(N2CCN(c3ccc4cc(S(=O)(=O)N5CCCCC5)ccc4n3)CC2)cc1`: the “activation” value was inactive: 9.05%.
The value for `COc1ccc(-c2nc(CS(=O)(=O)CC(=O)NCCc3ccc(C)cc3)c(C)o2)cc1` was inactive: -26.1%; that for `CCOC(=O)c1ccc(NC(=O)CSc2nc3ccccc3c(=O)n2CCC(=O)NC2CCCCC2)cc1` was inactive: -15.4%; that for `CCC(=O)C1=C(c2ccc(OC)c(OC)c2)N(C(=O)CC)n2c(nnc2-c2ccc(C)cc2)S1` was inactive: -21.6%.
